Test results: the supplement of paper PMC10338343
± gives the standard deviation. The full ranking holds about 3,000 sequences; the median of “pre-steady-state target cleavage rate” is about 0.0079, and the highest 2% start at about 0.2. This is a selection; strong and weak results do not stand in their true shares.

Tested on: MILI (PIWIL2) piRISC loaded with piRNA #2 (26 nt)
Assay: pre-steady-state target cleavage rate (min^-1); MIWI and MILI are mouse PIWI proteins and EfPiwi is from a freshwater sponge; tags in brackets are library labels; higher = faster piRNA-guided slicing of the target
Details: guide: piRNA #2 5'p-UUAGGUAACCCAGUAGAUCCAGAGGA; auxiliary factor: 500 nM mouse GTSF1
Description: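 Cleave-'n-Seq: a library of target RNAs (target site embedded in constant flanks, ACAGCATTCCGCGTTAGTGATATCCG... 5' flank; DNA-blocked outside the site) at 0.1 nM was incubated with 1 nM active mouse MILI or MIWI piRISC (synthetic 5'-monophosphorylated piRNA guide) with or without 500 nM mouse GTSF1 at 33 °C for 1 min to 16 h. Uncleaved targets were sequenced and normalised to non-target controls, and the pooled three trials were fitted to a burst-and-steady-state model to give the pre-steady-state cleavage rate (min^-1; k3 is constrained to at most 1e-4). Sequence is the target site only; target names encode pairing extent (gX:gY) and contiguous / 1-mismatch / 2-mismatch / bulge geometry. Fits with R² ≤ 0 are excluded.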

Row | Sequence | pre-steady-state target cleavage rate
1 | CUUAUCCUCUGGAUGUACUGGGUUUCCUAA | 0.105 ± 0.04
2 | CUUAAGCUGUGGAUCUACAGGGUUACCUAA | 0.0785 ± 0.012
3 | CUUAAGGAGUGGAUCUACUGGGGUUACCUAA | 0.00877 ± 0.003
4 | CUUAAGCUCUGAUCUACUGGGUUACCUAA | 0.0427 ± 0.013
5 | CUUAACCUCAGGAUCUACUGGGUUACCUUA | 0.0721 ± 0.016
6 | CUUAAGCUCUGCUUCUACUGGGUUACCUAA | 0.0415 ± 0.0097
7 | CUUAACCUCGGAUCUACUGGGUUACCUAA | 0.103 ± 0.031
8 | CUUAUCCUCUAGAUCUACUGGGUUACCUAA | 0.224 ± 0.034
9 | CUUAAGGUCUGGAUCUAGAGGGUUACCUAA | 0.0495 ± 0.011
10 | CUUAAGGAGACGAUCUACUGGGUUUACCUAA | 0.00481 ± 0.0031
11 | CUUAAGGUGUGGAUCUUCUGGGUUACCUAA | 0.0242 ± 0.012
12 | CUUAUCCUCUGGAUCUACUGGGUAACCUUA | 0.181 ± 0.055
13 | CUUAUCCUCUGAUCUACUGGGUUACCUAA | 0.123 ± 0.029
14 | CUUAUCCUCUGGAUCUACUGCGUUACCUUA | 0.0128 ± 0.0052
15 | CUUAUCCUCUGGAUCUACUGGGUUACCAUAA | 0.15 ± 0.026
16 | CUUAAGGACUGGAUCUACACGGUUACCUAA | 0.00745 ± 0.0049
17 | CUUAUCCUCUCCAUCUACUGGGUUACCUAA | 0.132 ± 0.021
18 | CUUAAGGAGAGGAUCUACUGGGUUAUCCUAA | 0.00736 ± 0.004
19 | CUUAUCCUCUGGAUCUGCUGGGUUACCUAA | 0.0654 ± 0.015
20 | CUUAAGGACUGGAUCUACUGGGGUUACCUAA | 0.00846 ± 0.0074
21 | CUUAAGGUCUCGAUCUACUCGGUUACCUAA | 0.00571 ± 0.0029
22 | CUUAAGCUCUGGAUCUACUGGUUUACCUAA | 0.00746 ± 0.0029
23 | CUUAAGGAGUGGUUCUACUGGGUUACCUAA | 0.0254 ± 0.0091
24 | CUUAAGCUCUGGAUCUACUGGGUUAGCUUA | 0.0559 ± 0.016

Row | Sequence | pre-steady-state target cleavage rate
25 | CUUAUGCUCUGGAUCUACUGGGUUACCAAA | 0.1 ± 0.02
26 | CUUAAGCUCUGGAUCUACUGGGAUACCUUA | 0.0439 ± 0.014
27 | CUUAACCUCUGGAUCUACUGCGUUACCAAA | 0.0107 ± 0.0051
28 | CUUAAGGACUGGAUCUACUGGGUUACCUA | 0.0445 ± 0.017
29 | CUUAAGCUCUGGAUCUACUGGGUUUGGUAA | 0.00974 ± 0.0055
30 | CUUAUCCUCUCGAUCUACUGGGUUACCUUA | 0.174 ± 0.029
31 | CUUAAGGAGUGGAUAUACUGGGUUACCUAA | 0.0213 ± 0.01
32 | CUUAAGGAGACCUACUACUGGGUUACCUAG [g2:g16:cont:t1G] | < 0.0001
33 | CUUAAGGAGUGGAUCUACUGGGUGACCUAA | 0.00657 ± 0.0048
34 | CUUAAGCUCUGGAUCUACAGCGUUACCUAA | 0.0101 ± 0.0043
35 | CUUAACCACUGGAUCUACUGGGUUAGCUAA | 0.00628 ± 0.0054
36 | CUUAAGGAGACGAUCUACUGGGUUACCUAAA | 0.00784 ± 0.0049
37 | CUUAAGGUCUCGGAUCUACUGGGUUACCUAA | 0.0556 ± 0.012
38 | CUUAACCUCUGGAUCUACUAGGUUACCUAA | 0.0639 ± 0.017
39 | CUUAAGGUCGGGAUCUACUGGGUUACCUAA | 0.04 ± 0.022
40 | CUUAAGGAGACCUACAACUGGGUUACGUAA | < 0.0001
41 | CUUAAGGUCUGGACCUACUGGGUUACCUAA | 0.031 ± 0.0078
42 | CUUAAGGAGACGAUCUACUGGGUUACCUA | 0.00514 ± 0.0036
43 | CUUAACCUCUGGUAGUACUGGGUUACCUAA | 0.078 ± 0.025
44 | CUUAAGGACAUGGAUCUACUGGGUUACCUAA | 0.0309 ± 0.012
45 | CUUAAGGUCUGGAUCUACUGGGUUACCUAC [g2:g23:cont:t1C] | 0.0853 ± 0.013
46 | CUUAAGGACAGCAUCUACUGGGUUACCUAA | 0.0348 ± 0.014
47 | CUUAUCGUCUGGAUCUAGUGGGUUACCUAA | 0.0211 ± 0.0056
48 | CUUAACCUCUCGAUCUACUCGGUUACCUAA | 0.00465 ± 0.0023

Row | Sequence | pre-steady-state target cleavage rate
49 | CUUAAGGUCUCGAUCUAGUGGGUUACCUAA | 0.0272 ± 0.0088
50 | CUUAACCUCUGGAUCUAGUGGGUAACCUAA | 0.0212 ± 0.0064
51 | CUUAACCUGUGGAUCUACUGGGAUACCUAA | 0.0128 ± 0.0049
52 | CUUAAGGACUGGAUCUACUGGGUUACGUAA | 0.00898 ± 0.0079
53 | CUUAAGGUCUGGUUCAACUGGGUUACCUAA | 0.038 ± 0.012
54 | CUUAAGCUCUGGUCUACUGGGUUACCUAA | 0.154 ± 0.06
55 | CUUAACCUCAGGAUCUAGUGGGUUACCUAA | 0.0644 ± 0.014
56 | CUUAAGCUCAGCAUCUACUGGGUUACCUAA | 0.119 ± 0.035
57 | CUUAAGGACUUGGAUCUACUGGGUUACCUAA | 0.0239 ± 0.0091
58 | CUUAAGCUGCUGGAUCUACUGGGUUACCUAA | 0.0417 ± 0.015
59 | CUUAACCUAUGGAUCUACUGGGUUACCUAA | 0.108 ± 0.016
60 | CUUAACCUCUCGAUCAACUGGGUUACCUAA | 0.0682 ± 0.013
61 | CUUAAGCUCUGGAUCUACUGGGUAUGCUAA | 0.055 ± 0.016
62 | CUUAUCCUCUCGAUCUACUGGCUUACCUAA | 0.00464 ± 0.0021
63 | CUUAUCCUCUGGAUCUUCUGGGAUACCUAA | 0.0466 ± 0.014
64 | CUUAUCCUCAGCAUCUACUGGGUUACCUAA | 0.271 ± 0.06
65 | CUUAAGCUCUGGAUCUUGUGGGUUACCUAA | 0.00903 ± 0.0046
66 | CUUAAGGACUGGAUGUACUGGGUUACCUUA | 0.0218 ± 0.018
67 | CUUAAGCUCUGGAUCAACAGGGUUACCUAA | 0.0282 ± 0.0061
68 | CUUAAGGACUAGGAUCUACUGGGUUACCUAA | 0.0111 ± 0.0071
69 | CUUAAGGUCUUGAUCUACUGGGUUACCUAA | 0.0869 ± 0.017
70 | CUUAACCUGUGGUUCUACUGGGUUACCUAA | 0.0336 ± 0.0095
71 | CUUAUCCUCUCGAUCUUCUGGGUUACCUAA | 0.166 ± 0.026
72 | CUUAUGCUCUGGAUCUACUGCGUUACCUAA | 0.0127 ± 0.0036
